# Experimental data from a collection of fitness landscapes (doi:10.1016/j.celrep.2020.107928).
# The full ranking holds about 81,000 sequences; the median of “one-hybrid fitness for binding NBS DNA” is about -0.1, and the highest 2% start at about 0.36. Some of the results follow.
# B1: Caulobacter ParB omega fusion; a variant is named by its letters at X, in order, B8GW30 (parent)
# chain: MESVVVGEPGMSEGRRGLGRGLSALLGEVDAAPAQAPGEQLGGSREAPIEILQRNPDQPRRTFREEDLEDLSNSIREKGVLQPILVRPSPDTAGEYQIVAGERAWRAAQRAGLKTVPIMVRELDDLAVLEIGIIENVQRADLNVLEEALSYKVLMEKFERTQENIAQTIGKSXSHVANXMRLLXLPDEVQSYLVSGELTAXHARAIAAAADPVALAKQIIEGGLSVRETEALARKAPNLSAGKSKGGRPPRVKDTDTQALESDLSSVLGLDVSIDHRGSTGTLTITYATLEQLDDLCNRLTRGI
# Variants of: B1
# Assay: one-hybrid fitness for binding NBS DNA (the Noc-binding site; scaled: cognate 1, non-cognate 0); higher = stronger binding
# Details: with NBS DNA site
# Summary of the method: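 On M9-minus-histidine containing 0.1 mM IPTG and 5 mM 3-AT, E. coli USO cells with a HIS3 reporter, site 19 bp from the promoter, grew 48 hours at 37°C to select Caulobacter ParB libraries randomised at four specificity codons. Plasmids from before and after were Illumina-sequenced, with three replicate libraries pooled and variants under 10 reads left out. Fitness is the log change in variant-to-wild-type read ratio, rescaled against cognate and non-cognate.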
row,Variant,one-hybrid fitness for binding NBS DNA
1,ATMR,≤ 0.2
2,NYCG,≤ 0.2
3,GIPF,≤ 0.2
4,ETNR,≤ 0.2
5,TAKY,≤ 0.2
6,QYNA,0.269
7,SFSM,≤ 0.2
8,SFND,≤ 0.2
9,VCLL,≤ 0.2
10,LQNM,≤ 0.2
11,ECRD,≤ 0.2
12,HNKD,≤ 0.2
13,HYYR,≤ 0.2
14,MMCG,≤ 0.2
15,ENQR,≤ 0.2
16,MHSF,≤ 0.2
17,KLGI,≤ 0.2
18,RDMG,≤ 0.2
19,NYDF,≤ 0.2
20,CYLR,≤ 0.2
21,KRVP,≤ 0.2
22,NNAS,≤ 0.2
23,TLNM,≤ 0.2
24,FMAR,≤ 0.2
25,DDAG,≤ 0.2

row,Variant,one-hybrid fitness for binding NBS DNA
1,HRED,≤ 0.2
2,TARP,≤ 0.2
3,PQLC,≤ 0.2
4,CPCS,≤ 0.2
5,MVCS,≤ 0.2
6,YSWR,≤ 0.2
7,CSRC,≤ 0.2
8,DTND,≤ 0.2
9,GLPS,≤ 0.2
10,RWHV,≤ 0.2
11,RSTR,0.447
12,PSVI,≤ 0.2
13,TEDR,≤ 0.2
14,RITH,≤ 0.2
15,VSYM,≤ 0.2
16,IYNY,≤ 0.2
17,LRQN,≤ 0.2
18,ILDT,≤ 0.2
19,ECSC,≤ 0.2
20,HFTD,≤ 0.2
21,CQAS,≤ 0.2
22,HGPW,≤ 0.2
23,HVRL,≤ 0.2
24,YWGS,≤ 0.2
25,PTHL,≤ 0.2

row,Variant,one-hybrid fitness for binding NBS DNA
1,VRFS,≤ 0.2
2,RQFY,≤ 0.2
3,RACA,≤ 0.2
4,TPSS,≤ 0.2
5,NHRD,≤ 0.2
6,FGPV,≤ 0.2
7,WCRA,≤ 0.2
8,IRQM,≤ 0.2
9,LLPG,≤ 0.2
10,AQDC,≤ 0.2
11,ACKD,≤ 0.2
12,ILTF,≤ 0.2
13,GECS,≤ 0.2
14,NGRA,≤ 0.2
15,ACYT,≤ 0.2
16,RACG,≤ 0.2
17,IWNT,≤ 0.2
18,METS,≤ 0.2
19,QKDY,≤ 0.2
20,RGLT,≤ 0.2
21,SHYF,≤ 0.2
22,IEIV,≤ 0.2
23,YRIT,≤ 0.2
24,SALV,≤ 0.2
25,MIQP,≤ 0.2

row,Variant,one-hybrid fitness for binding NBS DNA
1,CKAQ,≤ 0.2
2,QMVM,≤ 0.2
3,IRKI,≤ 0.2
4,AYKN,≤ 0.2
5,SNKY,≤ 0.2
6,YMAA,≤ 0.2
7,KLDY,≤ 0.2
8,SEAT,≤ 0.2
9,QPFS,≤ 0.2
10,AMET,≤ 0.2
11,DRTA,≤ 0.2
12,VDSP,≤ 0.2
13,SLFP,≤ 0.2
14,KTPG,≤ 0.2
15,GCCS,≤ 0.2
16,MQDL,≤ 0.2
17,YMHC,≤ 0.2
18,GAGR,≤ 0.2
19,DFTL,≤ 0.2
20,RIRE,≤ 0.2
21,VIQC,≤ 0.2
22,QTQS,0.504
23,SDES,≤ 0.2
24,TIME,≤ 0.2
25,FSWY,≤ 0.2

row,Variant,one-hybrid fitness for binding NBS DNA
1,RPGF,≤ 0.2
2,YKGR,≤ 0.2
3,LTGV,≤ 0.2
4,RRIT,0.788
5,CQTR,≤ 0.2
6,TTNM,≤ 0.2
7,ENVT,≤ 0.2
8,IHII,≤ 0.2
9,RRPD,≤ 0.2
10,TLSP,≤ 0.2
11,FMHG,≤ 0.2
12,LSLT,≤ 0.2
13,FRDF,≤ 0.2
14,NSTW,≤ 0.2
15,AGKM,≤ 0.2
16,LARR,≤ 0.2
17,FITM,≤ 0.2
18,TDLA,≤ 0.2
19,ETYR,≤ 0.2
20,GGRF,≤ 0.2
21,VEFR,≤ 0.2
22,QYTM,≤ 0.2
23,GGTY,≤ 0.2
24,IQEL,≤ 0.2
25,RHYQ,≤ 0.2

row,Variant,one-hybrid fitness for binding NBS DNA
1,FYAS,≤ 0.2
2,MLKY,≤ 0.2
3,WQNC,≤ 0.2
4,LRHR,0.252
5,LVLE,≤ 0.2
6,IAGI,≤ 0.2
7,WTRR,0.241
8,QHLY,≤ 0.2
9,AANS,≤ 0.2
10,ESRF,≤ 0.2
11,SNAL,≤ 0.2
12,VMAC,≤ 0.2
13,GQDG,≤ 0.2
14,EVRS,≤ 0.2
15,SWEG,≤ 0.2
16,TVRA,≤ 0.2
17,KREM,≤ 0.2
18,THFR,≤ 0.2
19,SDPH,≤ 0.2
20,WVLY,≤ 0.2
21,LMVN,≤ 0.2
22,KYGP,≤ 0.2
23,AAWR,≤ 0.2
24,GEAL,≤ 0.2
25,QNSM,≤ 0.2

row,Variant,one-hybrid fitness for binding NBS DNA
1,SEHE,≤ 0.2
2,TDRA,≤ 0.2
3,ADYY,≤ 0.2
4,LAQC,≤ 0.2
5,RQVM,≤ 0.2
6,CFHG,≤ 0.2
7,RYLY,≤ 0.2
8,ESVI,≤ 0.2
9,GHPP,≤ 0.2
10,SPYC,≤ 0.2
11,GDCC,≤ 0.2
12,ENKA,≤ 0.2
13,TLDG,≤ 0.2
14,CNPR,≤ 0.2
15,QAVR,0.358
16,VRSG,≤ 0.2
17,SSQA,≤ 0.2
18,ARYT,≤ 0.2
19,DTYN,≤ 0.2
20,CYPQ,≤ 0.2
21,TYIF,≤ 0.2
22,NNPA,≤ 0.2
23,SLHL,≤ 0.2
24,PWSG,≤ 0.2
25,DKDW,≤ 0.2

row,Variant,one-hybrid fitness for binding NBS DNA
1,HRCI,≤ 0.2
2,LKNL,≤ 0.2
3,TNQD,≤ 0.2
4,YMMG,≤ 0.2
5,DAQR,≤ 0.2
6,NLRL,≤ 0.2
7,NVYM,≤ 0.2
8,QTVC,≤ 0.2
9,WPPC,≤ 0.2
10,RHPS,≤ 0.2
11,EISC,≤ 0.2
12,RGVM,≤ 0.2
13,TWDP,≤ 0.2
14,RHFS,0.208
15,QPAD,≤ 0.2
16,QMAC,≤ 0.2
17,EYEV,≤ 0.2
18,RMNT,0.546
19,WTKW,≤ 0.2
20,WQNN,≤ 0.2
